About 14,000 (4.5%) of roughly 310,000 compounds showed an effect of 50% or more. The effect is printed as a negative number. Some of the results follow.
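Note: peak tail current of the secondary pulse compared with the same well before compound.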

In this test the target is human ether-à-go-go-related gene (hERG) potassium channel (human, UniProt Q12809). Briefly: primary screen, population patch clamp on CHO cells stably expressing hERG.
Chain of human ether-à-go-go-related gene (hERG) potassium channel (Q12809 whole entry, looked up): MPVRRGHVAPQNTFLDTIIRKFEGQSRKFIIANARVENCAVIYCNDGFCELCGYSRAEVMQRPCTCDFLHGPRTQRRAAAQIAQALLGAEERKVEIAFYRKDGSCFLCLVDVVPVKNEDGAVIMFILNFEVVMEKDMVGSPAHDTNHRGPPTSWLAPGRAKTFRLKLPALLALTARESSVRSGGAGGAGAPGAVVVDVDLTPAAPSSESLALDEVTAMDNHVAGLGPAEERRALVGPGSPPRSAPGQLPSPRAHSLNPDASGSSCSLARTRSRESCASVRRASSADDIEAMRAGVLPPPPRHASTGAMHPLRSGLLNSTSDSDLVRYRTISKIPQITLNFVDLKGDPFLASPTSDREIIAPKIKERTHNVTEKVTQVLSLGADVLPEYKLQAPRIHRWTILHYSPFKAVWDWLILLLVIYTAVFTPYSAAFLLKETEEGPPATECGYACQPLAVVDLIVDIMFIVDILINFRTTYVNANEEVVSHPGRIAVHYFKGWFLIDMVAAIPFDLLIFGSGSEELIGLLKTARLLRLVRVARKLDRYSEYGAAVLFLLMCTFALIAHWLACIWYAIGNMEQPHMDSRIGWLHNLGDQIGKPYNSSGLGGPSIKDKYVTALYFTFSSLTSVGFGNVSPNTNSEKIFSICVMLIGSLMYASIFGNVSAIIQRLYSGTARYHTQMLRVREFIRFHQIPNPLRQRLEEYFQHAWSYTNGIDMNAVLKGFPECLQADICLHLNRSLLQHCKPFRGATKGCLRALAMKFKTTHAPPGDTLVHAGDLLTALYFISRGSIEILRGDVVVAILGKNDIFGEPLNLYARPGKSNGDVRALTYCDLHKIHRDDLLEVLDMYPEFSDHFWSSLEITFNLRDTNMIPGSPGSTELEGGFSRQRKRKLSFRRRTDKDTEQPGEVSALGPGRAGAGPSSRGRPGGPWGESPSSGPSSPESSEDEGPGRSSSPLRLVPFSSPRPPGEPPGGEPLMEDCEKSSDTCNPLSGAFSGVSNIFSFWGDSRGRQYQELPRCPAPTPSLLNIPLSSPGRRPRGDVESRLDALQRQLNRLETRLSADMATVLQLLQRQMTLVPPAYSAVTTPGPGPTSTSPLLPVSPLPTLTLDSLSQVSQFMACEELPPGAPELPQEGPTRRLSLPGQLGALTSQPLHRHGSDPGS
Regarding `Cn1c(SCC(=O)NCc2ccccc2)nnc1-c1ccc(NC(=O)CCc2ccccc2)cc1`, the “hERG current change (%, negative = inhibition) at 10uM” value turned out to be 0.902%. For `CCNc1nc(NC(C)C)nc(NS(=O)(=O)c2ccc(N)cc2)n1`, the “hERG current change (%, negative = inhibition) at 10uM” value was -6.03%. For the molecule `CN(CC1COc2ccccc2O1)C(=S)Nc1ccccc1` (stereo not drawn), the “hERG current change (%, negative = inhibition) at 10uM” value is -16.5%. The result for `CCCn1nnc(NC(=O)c2ccc(OCC)c(Cl)c2)n1` reads -3.85%. As for `Cc1cccc(C(=O)Oc2ccccc2C2C[C@]3(C)CC(=O)NC3N2C(=O)c2cccc(C)c2)c1` (stereo partly drawn), the “hERG current change (%, negative = inhibition) at 10uM” value was -10.8%. The result for `CCOc1cc(/C=N/NC(=O)CN2CCCCC2)ccc1OCc1ccccc1` reads -59.9%.

As for `CCCCN=C1NN=C(c2cccc([N+](=O)[O-])c2)CS1.Cl`, the “hERG current change (%, negative = inhibition) at 10uM” value is recorded as -4.82%. Regarding `Fc1cccc(Cl)c1CSc1nnc(CN2CCOCC2)n1-c1ccccc1`, the “hERG current change (%, negative = inhibition) at 10uM” value is listed as -8.63%. The result for `COc1ccccc1N(CC(=O)NCc1ccc(F)cc1)C(=O)CCC(=O)Nc1ccccn1` reads 5.6%. As for `CC1(OC(=O)c2cccs2)C(=O)C=C2C=C3CCCN3C=C2C1=O` (stereo not drawn), the “hERG current change (%, negative = inhibition) at 10uM” value is 13.4%. The result for `Nc1nonc1-n1nnc(C(=O)N/N=C/c2cccnc2)c1-c1ccccc1` reads -1.35%. `CCOC(=O)C(CCCOc1cccc(OC)c1)C(=O)OCC`: the “hERG current change (%, negative = inhibition) at 10uM” value is -14.9%. Regarding `CCOC(=O)N1CCN(C(=O)CNC2CCCCCCC2)CC1.O=C(O)C(=O)O`, the “hERG current change (%, negative = inhibition) at 10uM” value amounted to 15.1%. The result for `Cc1cccc(C)c1NC(=O)CSc1nc(-c2ccco2)cc(C(F)(F)F)n1` reads 4.77%; that for `C=CCn1c(COc2ccc(Cl)cc2)nnc1SCC(=O)N/N=C/c1cccc(O)c1`, 1.35%. The value for `CN(C(=O)COc1ccccc1C(=O)NCCc1ccccc1)c1ccccc1` was -10.2%. For `COc1ccc(NC(=O)N(Cc2cc3ccc(OC)cc3[nH]c2=O)CC2CCCO2)cc1` (stereo not drawn), the “hERG current change (%, negative = inhibition) at 10uM” value is -46.6%. The result for `COC(=O)c1ccc(NC(=O)c2cccc(NC(=O)c3ccco3)c2)cc1` reads -8.01%; that for `CC(C)(C)c1ccc(/C=C/C(=O)N2CCc3ccccc3C2)cc1`, -2.16%; that for `O=C(CNC(=O)c1ccccc1)OCc1ccc([N+](=O)[O-])cc1`, -33.9%. As for `CCCN1C(=O)/C(=C/c2ccc(C)s2)SC1=Nc1ccc(OC)cc1`, the “hERG current change (%, negative = inhibition) at 10uM” value is 12.3%. For the molecule `CCCS(=O)(=O)NCCc1cc2cc(C)c(C)cc2[nH]c1=O`, the “hERG current change (%, negative = inhibition) at 10uM” value is given as -7.18%. As for `CNC(C)C#Cc1ccc2sc3cccc(OC)c3c(=O)c2c1` (stereo not drawn), the “hERG current change (%, negative = inhibition) at 10uM” value is listed as -3.61%.

Turning to `CCOCCc1nnc(NC(=O)c2cccc(F)c2)s1`, the “hERG current change (%, negative = inhibition) at 10uM” value amounted to 0.0842%.

`CC(C)(C)CC(=O)Nc1cc2c3c(c1)CCN3C(=O)CC2`: the “hERG current change (%, negative = inhibition) at 10uM” value was found to be 12.6%. On to `Cc1cc(C)nc(NS(=O)(=O)c2ccccc2)n1`, for which the “hERG current change (%, negative = inhibition) at 10uM” value was 3.77%. The result for `O=S(=O)(N/N=C1\CCCc2ccccc21)c1ccccc1` reads -7.38%; that for `CCCc1nnc(NC(=O)CCC(=O)N2CCN(c3ccccn3)CC2)s1`, -19.2%. The value for `CCCCCCOC(=O)C1=C(C)NC(=O)NC1c1ccc2c(c1)OCO2` (stereo not drawn) was -13.1%; that for `COc1ccc(-c2coc3cc(OC4OC(CO)C(O)C(O)C4O)cc(O)c3c2=O)cc1` (stereo not drawn) was 2.58%. Take `Cl.c1ccc2c(c1)oc1c(NCCCN3CCOCC3)ncnc12`: the “hERG current change (%, negative = inhibition) at 10uM” value is reported as -22.4%. With `CC(C)Oc1cc(NC(=O)CSCC(=O)Nc2cccc(C(F)(F)F)c2)c(Cl)cc1Cl`, the “hERG current change (%, negative = inhibition) at 10uM” value was found to be 14.5%. The result for `Cc1c(C(=O)Nc2ccccc2C(=O)N2CCCC2)cccc1[N+](=O)[O-]` reads 9.76%. The result for `O=C(OCC(=O)N1CCCC1)c1c2c(nc3ccccc13)CCCCC2` reads 11.2%; that for `Cc1ccccc1OCCC(=O)NCCc1ccc(S(N)(=O)=O)cc1`, 11.1%; that for `CCOC(=O)c1sc(=S)n(-c2ccccc2Cl)c1C`, -13.8%.

For the molecule `O=c1cc(CN2CCN(Cc3ccc(F)cc3)C(CCO)C2)[nH]c2ccccc12` (stereo not drawn), the “hERG current change (%, negative = inhibition) at 10uM” value is -61.2%. The value for `CCOc1c2ccccc2nn1CCOC` was 5.42%. The value for `COc1ccc(CCNC/C=C/c2ccccc2)cc1.Cl` was -51.4%. The value for `COC(=O)CNC(=O)C(Cc1ccccc1)NS(=O)(=O)c1ccc2c(c1)c(=O)n(C)c(=O)n2C` (stereo not drawn) was 11.6%; that for `NC(=O)CS(=O)(=O)c1ccc(Cl)cc1` was 24.7%; that for `Cc1ccc(N(CC(=O)NCc2ccco2)C(=O)CCC(=O)Nc2ccccn2)c(C)c1` was -11.9%.

Regarding `Cc1cc(O)ccc1N/C=C1\CCCC1=O`, the “hERG current change (%, negative = inhibition) at 10uM” value came to 3.69%. The value for `Cc1cccc(NC(=O)CNCC(=O)Nc2cccc(C)c2C)c1C.Cl` was -7.02%; that for `COc1ccc2[nH]cc(CCNC(=O)C3CCCNC3=O)c2c1` (stereo not drawn) was -7.86%; that for `c1ccc(CNc2nc(N3CCOCC3)nc(N3CCOCC3)n2)cc1` was -10%.

With `CN1CCc2c(sc3nc(SCC(=O)N4CCOCC4)n(-c4ccc(Cl)cc4)c(=O)c23)C1`, the “hERG current change (%, negative = inhibition) at 10uM” value was 8.76%.

For the molecule `COc1ccc(Cl)cc1S(=O)(=O)NCCCn1ccnc1`, the “hERG current change (%, negative = inhibition) at 10uM” value was found to be 9.19%.

Take `O=C(C1CCCN1S(=O)(=O)c1ccc(Cl)cc1)N1CCCCC1` (stereo not drawn): the “hERG current change (%, negative = inhibition) at 10uM” value stood at 4.62%.

Take `CCCN(CCC)C(=O)CCSCCC(=O)N(CCC)CCC`: the “hERG current change (%, negative = inhibition) at 10uM” value came out at 14.5%. Take `CC(C)C(OC(=O)CN1C(=O)COc2ccccc21)C(=O)NC1CCCC1` (stereo not drawn): the “hERG current change (%, negative = inhibition) at 10uM” value amounted to 10.4%. For the molecule `CCC(C)(C(=O)NC1CCCC1)N(C(=O)CNC(C)=O)c1ccc(C)cc1` (stereo not drawn), the “hERG current change (%, negative = inhibition) at 10uM” value is reported as 6.26%. The result for `Cc1ccc(NC(=O)Cn2nnc(C(=O)NCc3cccs3)c2N)cc1Cl` reads 19.8%. Turning to `CN(CC(=O)Nc1ccc(N2CCOCC2)cc1)C(=O)CSc1ccc(F)cc1`, the “hERG current change (%, negative = inhibition) at 10uM” value is -7.63%. Turning to `Cc1ccc(NC(=O)CN(C)C(=O)c2ccc3[nH]c4c(c3c2)CC(C)CC4)cc1` (stereo not drawn), the “hERG current change (%, negative = inhibition) at 10uM” value is listed as 8.58%.

Regarding `COc1ccccc1NC(=O)CN1CCC(n2nnc3cc(F)ccc32)CC1`, the “hERG current change (%, negative = inhibition) at 10uM” value was -55.4%. As for `CCOCCCNC(=O)Cn1cnc2sc(C)c(S(=O)(=O)N3CCN(c4ncccn4)CC3)c2c1=O`, the “hERG current change (%, negative = inhibition) at 10uM” value was 10.4%.

The values are drawn from article PMC4336329 (PLoS ONE, 2015).
